Test results published in patent US20230114801A1 (SYSTIMMUNE, published 2023).

What was measured:
[1] = target: T1, human HER3 (human, UniProt P21860 partial chain); assay: BLI (Octet), unstapled control mAb or Fc-scFv
T1 construct: Soluble antigen in Octet; bought; also called human HER3 (Acro ER3-H5223)

[2] = target: T2, human EGFR (human, UniProt P00533 partial chain, limits assumed); assay: BLI (Octet), binder on AHC sensor; conditions for this molecule not stated
T2 construct: Soluble antigen in Octet; construct not described

[3] = target: T3, human CD3 (human, UniProt P07766 23-126; P04234 22-105); assay: as above
T3 construct: also called His-tagged human CD3; human CD3 (Acro CDD-H52W1)

human CD3, sequence (P07766 23-126, chain 1 of 2): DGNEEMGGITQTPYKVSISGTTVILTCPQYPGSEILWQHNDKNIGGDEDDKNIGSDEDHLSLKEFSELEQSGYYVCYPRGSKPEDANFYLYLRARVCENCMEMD
human CD3, sequence (P04234 22-105, chain 2 of 2, further chain): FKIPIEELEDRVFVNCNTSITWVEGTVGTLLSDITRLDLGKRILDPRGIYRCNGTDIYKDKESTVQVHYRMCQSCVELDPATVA

| Kd [1] [nM] | Kd [2] [nM] | Kd [3] [nM] | Binder |
| --- | --- | --- | --- |
| 136 | – | – | SI-1C7 (Fc fusion, Fc-scFv control for the αHER3 domain; also called αHER3 Fc-scFv; D2 = αHER3 unstapled control) [human IgG1 Fc with changes cut from this listing]GGGSGGGGSQVQLQESGGGLVKPGGSLRLSCAASGFTFSSYWMSWVRQAPGKGLEWVANINRDGSASYYVDSVKGRFTISRDDAKNSLYLQMNSLRAEDTAVYYCARDRGVGYFDLWGRGTLVTVSSGGGGSGGGGSGGGGSQSALTQPASVSGSPGQSITISCTGTSSDVGGYNFVSWYQQHPGKAPKLMIYDVSDRPSGVSDRFSGSKSGNTASLIISGLQADDEADYYCSSYGSSSTHVIFGGGTKVTVL |
| – | < 0.001 | 14.3 | SI-68X1 (other, tri-miniGNC, stapled scFv; D1 αCEA, D2 αEGFR*, D3 αCD3 (Fab)) chain 1: DIQMTQSPSTLSASVGDRVTITCQASENIYSNLAWYQQKPGKAPKLLIYDASTLASGVPSRFSGSGSGTEFTLTISSLQPDDFATYYCQSTYYNNIIYGAAFGCGTKVEIKGGGGSGGGGSGGGGSGGGGSEVQLVESGGGLVQPGGSLRLSCAASGFSFSGTQYVCWVRQAPGKCLEWIGCIYVDVANTYYATSVKGRFTISRDNSKNTLYLQMNSLRAEDTAVYYCASHDTVCAGCGLDLWGQGTLVTVSTGGGGSGGGGSEVQLVESGGGLVQPGGSLRLSCAASGFTISTNAMSWVRQAPGKGLEWIGVITGRDITYYASWAKGRFTISRDNSKNTLYLQMNSLRAEDTAVYYCARDGGSSAITSNNIWGQGTLVTVSSASTKGPSVFPLAPSSKSTSGGTAALGCLVKDYFPEPVTVSWNSGALTSGVHTFPAVLQSSGLYSLSSVVTVPSSSLGTQTYICNVNHKPSNTKVDKRVEPKSCDKTHTCPPCPAPEAAGGPSVFLFPPKPKDTLMISRTPEVTCVVVDVSHEDPEVKFNWYVDGVEVHNAKTKPREEQYASTYRVVSVLTVLHQDWLNGKEYKCAVSNKALPAPIEKTISKAKGQPREPQVCTLPPSRDELTKNQVSLSCAVKGFYPSDIAVEWESNGQPENNYKTTPPVLDSDGSFFLVSKLTVDKSRWQQGNVFSCSVMHEALHNHYTQKSLSLSPGK chain 2: DIQMTQSPSSLSASVGDRVTITCQASQDISNYLNWYQQKPGKAPKLLIYDASNLETGVPSRFSGSGSGTDFTFTISSLQPEDIATYFCQHFDHLPLAFGCGTKVEIKGGGGSGGGGSGGGGSGGGGSQVQLQESGPGLVKPSETLSLTCTVSGGSVSSGDYYWTWIRQSPGKCLEWIGHIYYSGNTNYNPSLKSRLTISIDTSKTQFSLKLSSVTAADTAIYYCVRDRVTGAFDIWGQGTMVTVSTGGGGSGGGGSDVVMTQSPSTLSASVGDRVTINCQASESISSWLAWYQQKPGKAPKLLIYEASKLASGVPSRFSGSGSGTEFTLTISSLQPDDFATYYCQGYFYFISRTYVNSFGGGTKVEIKRTVAAPSVFIFPPSDEQLKSGTASVVCLLNNFYPREAKVQWKVDNALQSGNSQESVTEQDSKDSTYSLSSTLTLSKADYEKHKVYACEVTHQGLSSPVTKSFNRGECGG[human IgG1 Fc with L234A L235A N297A K322A S354C T366W (EU numbers) cut from this listing] |
